# Data as given in PubChem BioAssay AID1956 (SRMLSC, 2009).
# Among all 220,000 compounds or so, about 10 (0.005%) were called active. The inconclusive results got no clear call from the source; some entries with a clear call stand among them for comparison. No stated cut-off is given here; in the data, active means maximum fold increase above about 1.5; inconclusive means no clear call, values can overlap the other calls; inactive means below that; tested in PC3 cells.
# Assay: compounds boosting herpes simplex virus growth – fold increase, host cell viability (AID 1956)
# Conditions: HSV replication augmentation in cells; at 25 µM unless noted
row,SMILES,maximum fold increase
1,N/C(=N\OC(=O)CN1C(=O)c2ccccc2C1=O)c1ccc(Br)cc1,inactive
2,CC(C)(C)c1cc[n+](-c2[nH]c(=O)sc2/C=N/NC([S-])=Nc2ccccc2)cc1,inconclusive
3,CCN(CC)S(=O)(=O)c1ccc(N2CCOCC2)c(NC(=O)c2ccc(NC(C)=O)cc2)c1,inactive
4,Cn1c(=O)oc2cc(S(=O)(=O)N3CCN(c4ccc(F)cc4)CC3)ccc21,inconclusive
5,Nc1ccc(C(=O)OCC(=O)NC2CCCc3ccccc32)cc1[N+](=O)[O-] (configuration not stated),inconclusive
6,Nc1cc2nc3ccccc3oc-2cc1=O,inconclusive
7,CC(C)c1ccc(N2C(=O)/C(=C/N(C)C)SC2=S)cc1,inconclusive
8,C(=C\c1ccccc1)/C=N/N1CCN(Cc2ccccc2)CC1,inactive
9,CC(=O)c1cc(OC(=O)c2ccncc2)ccc1OC(=O)c1ccncc1,inconclusive
10,CC1CCN(C(=S)c2cn(Cc3ccc(F)cc3)c3ccccc23)CC1,inconclusive
11,Brc1ccc(OCCCCCN2CCOCC2)cc1,inactive
12,Cn1c(=O)c(Nc2ccc(Cl)cc2)c2c3c(cccc31)C(=O)c1ccccc1-2,inconclusive
13,CCOn1c(=O)c[n+]([O-])c2ccccc21,inconclusive
14,O=C1CCC(=O)N1CNc1ccccn1,inactive
15,COc1ccc([N+](=O)[O-])cc1NC(=O)COC(=O)c1ccc(O)cc1,inactive
16,CCCCc1nnc(NC(=O)C(C)Sc2nc(C)cc(=O)[nH]2)s1 (configuration not stated),inconclusive
17,O=C(N/C(=C\c1ccc(Br)cc1)C(=O)N1CCCC1)c1ccccc1F,inactive
18,N#CC1=C(N)C(C#N)(C#N)[C@H](c2cccnc2)[C@H]2CN(C(=O)OCc3ccccc3)CC=C12,inconclusive
19,NS(=O)(=O)c1ccc(N/N=C/c2cn(-c3ccccc3)nc2-c2cccs2)cc1,inactive
20,CCCn1cnc2sc(CC)cc2c1=O,inactive
21,O=C1N/C(=N\S(=O)(=O)Cc2ccccc2)S/C1=C/c1cc([N+](=O)[O-])ccc1O,inconclusive
22,Cc1c(C(=O)N/N=C/c2ccc(Cl)cc2)[nH]c2ccc(Cl)cc12,inactive
23,COc1ccc2[nH]c(C)c(CCN(Cc3cccs3)C(=S)Nc3ccccc3OC)c2c1,inconclusive

row,SMILES,maximum fold increase
1,CC(=Nc1ccccc1O)c1sc2ccccc2c1O,inconclusive
2,O=C(O)Cc1sc(N/N=C\c2ccncc2)nc1-c1ccccc1,inconclusive
3,CN1C2CCC1/C(=C/c1cccn1C)C(=O)/C2=C\c1cccn1C,inconclusive
4,COc1ccc2nc(Nc3sc4c(c3C(N)=O)CCCC4)sc2c1,inconclusive
5,CCN1C(=O)CS/C1=C(\C#N)S(=O)(=O)c1ccccc1,inconclusive
6,O=C(CSC1=NCCN1)C1COc2ccccc2O1 (configuration not stated),inactive
7,Cc1c(Nc2c3c(c(C#N)c4nc5ccccc5n24)CCC3)c(=O)n(-c2ccccc2)n1C,inconclusive
8,COc1ccc(C(=O)/C=C/Nc2cccc(O)c2)cc1,inconclusive
9,CC(=O)Nc1ccc(S(=O)(=O)Nc2nc3ccccc3nc2Nc2ccc3ccccc3c2)cc1,inconclusive
10,S=c1[nH]nc(-c2ccc(Br)cc2)n1-c1ccc2c(c1)OCCO2,inconclusive
11,CCOC(=O)c1c(C)oc2c1c(C=NCCO)c(O)c1ccccc12,inconclusive
12,Cc1ccc(-c2ccc(S(=O)(=O)N3CCN(C)CC3)cc2)cc1,inactive
13,Cc1cc(=O)[nH]c(-n2nc(C)cc2C)n1,inconclusive
14,Cc1cc(C(=O)CCl)c(C)n1-c1ccon1,inactive
15,O=C(O)C(=O)/C(=C\c1ccccc1)c1ccc2ccccc2n1,inactive
16,Cc1ccc(NC(=O)c2cc(=O)c3ccccc3o2)cc1S(=O)(=O)N1CCOCC1,inactive
17,O=C(CCc1nnc(CCCc2ccccc2)o1)NCCCC1CCCC1,inactive
18,COC(=O)C1=C(C)N(c2ccc(F)cc2)/C(=C/c2ccc(O)cc2)C1=O,inconclusive
19,Cc1[nH]c(=O)[nH]c(=O)c1NC(=O)c1sc2nc3c(C)cccc3cc2c1N,inconclusive
20,CSc1nsc(/C=C/Nc2ccc(O)cc2C)c1C#N,inconclusive
21,COc1cc(/C=C(\C#N)c2nc3c(s2)CC(C)CC3)ccc1O (configuration not stated),inconclusive
22,CCOC(=O)c1nn(-c2ccc(Cl)cc2Cl)c(=N)c(C#N)c1C,inconclusive
23,CCc1nc2oc3cc(OC)ccc3c(=O)c2c(=O)n1Cc1ccco1,inconclusive

row,SMILES,maximum fold increase
1,CN1CCc2c(sc(/N=C/c3c[nH]c4ccccc34)c2C#N)C1,inconclusive
2,CCOC(=O)/C(C#N)=C\c1ccc(N2CCN(C/C=C/c3ccccc3)CC2)cc1,inconclusive
3,O=C(Nc1nc(-c2cc3ccccc3oc2=O)cs1)c1ccc(Br)o1,inactive
4,NC(=O)c1c(Nc2nc3c(F)cccc3s2)sc2c1CCCC2,inconclusive
5,Cc1ccc(C)c(N(CC(=O)Nc2cc(Cl)ccc2Oc2ccccc2)S(C)(=O)=O)c1,inactive
6,CCONC(=O)Nc1ccccc1[N+](=O)[O-],inconclusive
7,COc1ccc(/C=C2\SC(=O)NC2=S)cc1OC,inconclusive
8,c1ccc(Nc2ccc3c4c(cccc24)CC3)cc1,inconclusive
9,CCOC(=O)C1CCCN(c2nc3ccccc3nc2C(C#N)C(=O)OC(C)C)C1 (configuration not stated),inconclusive
10,CC(C)Oc1ccc(Cn2c(-c3ccco3)n[nH]c2=S)cc1,inconclusive
11,O=C(Oc1ccc(N(Cc2cccs2)C2=NS(=O)(=O)c3ccccc32)cc1)c1ccccc1F,inactive
12,O=[N+]([O-])c1ccc(Nc2ccccc2)nc1,inactive
13,O=C(CCc1nnc(C2CCCCC2)o1)N1CCN(Cc2ccccc2)CC1,inconclusive
14,Cc1cc(Oc2ccc(N)cn2)ccc1Cl,inconclusive
15,O=C(Oc1ccc2c(c1)O/C(=C\c1ccncc1)C2=O)c1ccccc1,inconclusive
16,CC(C)(C)C(=O)NC1(C(F)(F)F)NC(=O)N(c2ccccc2F)C1=O (configuration not stated),inactive
17,Cc1nc(-c2ccccc2)nc2sc(C(=O)c3ccc(F)cc3)c(N)c12,inconclusive
18,CC(C)NC(=O)COC(=O)/C=C/c1ccco1,inactive
19,N#CC1CC(c2ccc([N+](=O)[O-])cc2)=NN1c1ccc([N+](=O)[O-])cc1 (configuration not stated),inconclusive
20,Cc1ccc(C(=O)N2CCN(Cc3ccc4c(c3)OCO4)CC2)o1,inactive
21,CCOC(=O)c1c(N)sc(=S)c2c1CCC2,inconclusive
